# From PubChem BioAssay AID504832 (National Center for Advancing Translational Sciences (NCATS), 2011)
# Among all 310,000 compounds or so, about 18,000 (5.8%) were called active. This list was built around the results that the source calls inconclusive (neither active nor inactive); the mix of calls is not that of the screen. Calls follow the shape of the dose curve; as a rule, active = well fitted inhibition curve with a large enough effect; inconclusive = small, poorly fitted or top-dose-only effect, or another doubt; inactive = no such curve, though single readings can be large or run the other way. Potencies of inconclusive entries are left out as doubtful fits.
# Assay: Primary qHTS for delayed death inhibitors of the malarial parasite plastid, 48 hour incubation
# Details: P. falciparum luciferase growth in erythrocytes; series mostly up to 28.7 µM; activity change, negative = inhibition: at the top concentration
# In short: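 Parasite viability was followed by luminescence of a genomically integrated firefly luciferase. Cultures held 0.1% parasitemia at 2% hematocrit (final), incubated under 5% CO2 at 37 C.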
# % is scaled to controls: 0 for no effect and ±100 for the full control effect; potency is read from the fitted curve at half-maximal effect; tags tell the direction and shape of the fitted curve.
SMILES,Potency,"activity change, negative = inhibition"
CCOC(=O)Cn1c(=O)c2c(nc(N3CCCCC3)n2C)n(C)c1=O,"inconclusive [inhibitor, partial curve]",
COCCNC(=S)N(Cc1cc2cc(C)ccc2n2nnnc12)C1CCCC1,,inactive: -29%
O=[N+]([O-])c1ccc(/C=N/Nc2ccnc3cc(Cl)ccc23)o1,active: 2.33 µM,
COc1ccc(Nc2nc(N)c(C(=O)c3ccc(F)cc3)s2)cc1,"inconclusive [inhibitor, single point]",
Cc1ccccc1OCC(=O)Nc1ccc2c(c1)Cc1ccccc1-2,"inconclusive [inhibitor, single point]",
COc1cccc2c(=O)cc(C)n(CC(=O)Nc3cccc(C)c3)c12,"inconclusive [inhibitor, single point]",
C=CCn1c(SCC(=O)c2cccs2)nc2sc(C)c(C)c2c1=O,"inconclusive [inhibitor, single point]",
Cc1c(C(=O)NCC(c2ccco2)N2CCCC2)oc2ccc(Cl)cc12 (stereo not drawn),"inconclusive [inhibitor, partial curve, poor fit]",
COc1ccccc1N(C)S(=O)(=O)c1ccc(C(=O)OCC(=O)N(C(C)C)C(C)C)cc1,,inactive: 0%
O=S(=O)(c1ccc(F)cc1)N1CCN(Cc2nnc(-c3ccccc3)o2)CC1,"inconclusive [inhibitor, single point]",
CCc1ccc2c(c1)N(C[C@H](C)CN(C)C)c1ccccc1S2,active: 16.9 µM,
CC(/C=N/NC(=O)c1nnn(-c2nonc2N)c1CN1CCCCC1)=C\c1ccccc1,"inconclusive [inhibitor, partial curve, poor fit]",
CSCCC1NC2(C(=O)Nc3c2ccc(Cl)c3C)[C@@H]2C(=O)N(C3CCCC3)C(=O)[C@H]12 (stereo partly drawn),"inconclusive [inhibitor, single point]",
C=CCn1cc(C(=O)NCCCN(CC)CC)c(=O)c2cc(S(=O)(=O)N3CCC(C)CC3)ccc21,"inconclusive [inhibitor, partial curve]",
COc1ccccc1C(=O)NCCC(=O)NCCC12CC3CC(CC(C3)C1)C2,,inactive: 0.661%
CCO[C@H]1OC(C(=O)N2CCOCC2)=C[C@@H](c2ccc3c(c2)OCO3)[C@@H]1CCCO,,inactive: 39.8%
COCCN(CC(=O)Nc1cccc(C)c1C)C(=O)c1cc(-c2cccs2)nn1-c1ccccc1,"inconclusive [inhibitor, single point]",
CCOC(=O)c1oc2nc(C)c3c(c2c1N)CC(C)(C)OC3,,inactive: 3.61%
O=C(COc1ccccc1Cl)NCCNC(=O)c1ccco1,,inactive: 4.29%
Cc1[nH]nc(Nc2ccc(O)cc2)c1[N+](=O)[O-],,inactive: 2.87%
O=C(Nc1ccc(S(=O)(=O)N2CCCC2)cc1)c1cccc(OC(F)F)c1,"inconclusive [inhibitor, partial curve, poor fit]",
O=C(O)C1C2CCC(C2)C1C(=O)N1CCCC1 (stereo not drawn),,inactive: 14.1%

SMILES,Potency,"activity change, negative = inhibition"
CCOC(=O)C1=C(C)N=c2s/c(=C/c3cccc([N+](=O)[O-])c3O)c(=O)n2C1c1ccc(OC)cc1OC (stereo not drawn),"inconclusive [inhibitor, partial curve, poor fit]",
COc1cc(NC(=S)NC2CC(C)(C)NC(C)(C)C2)cc(OC)c1,,inactive: 17.4%
CC(C)(C)n1nnnc1C(c1ccc(C(F)(F)F)cc1)N(Cc1ccc(F)cc1)Cc1ccco1 (stereo not drawn),active: 1.85 µM,
Cc1csc(NC(=O)Cc2ccccc2Cl)n1,,inactive: 45.6%
CC1(C)CCCN(C(=O)c2coc(=O)c(Br)c2)C1,"inconclusive [inhibitor, single point]",
Cc1ccc(C(=O)N2CCC(n3nccc3NC(=O)C3CCOC3)CC2)cc1 (stereo not drawn),,inactive: 14.7%
COc1cc(/C=C/C(=O)OCC(=O)Nc2ccc(NC(C)=O)cc2)cc(S(=O)(=O)N2CCc3ccccc32)c1OC,"inconclusive [inhibitor, single point]",
CCOC(=O)c1ccc(NC(=O)CSc2nnc(CNc3ccc(C)cc3)n2C)cc1,"inconclusive [inhibitor, partial curve, poor fit]",
CCN(CC)C(=O)c1ccc(-c2ccccc2)cc1,"inconclusive [inhibitor, single point]",
COc1ccc(C(=O)OC(C(=O)c2ccccc2)c2ccccc2)cc1 (stereo not drawn),"inconclusive [inhibitor, single point]",
CC(=O)N(C)c1ccc(OCC(O)Cn2c3ccc(Cl)cc3c3cc(Cl)ccc32)cc1 (stereo not drawn),"inconclusive [inhibitor, partial curve]",
Cc1cc(C)cc(OC(C)C(=O)Nc2ccc3c(c2)n(C)c(=O)n3C)c1 (stereo not drawn),,inactive: -5.53%
Cc1cc(=O)oc2cc(OCC(=O)NC3CCN(Cc4ccccc4)CC3)ccc12,"inconclusive [inhibitor, single point]",
COc1ccc(Cl)cc1N(CC(=O)N1CCN(Cc2ccccc2)CC1)S(C)(=O)=O,"inconclusive [inhibitor, single point]",
Cc1ccc(-c2cccc(C(=O)NCc3ccccc3)n2)c2ccccc12,"inconclusive [inhibitor, full curve, poor fit]",
Cc1cc(C(=O)OCC(=O)N(CC(C)C)c2c(N)n(Cc3ccccc3)c(=O)[nH]c2=O)c(C)o1,"inconclusive [inhibitor, partial curve, poor fit]",
COc1cc(/C=N/NC(=O)c2cc(-c3cccs3)nc3ccccc23)ccc1O,"inconclusive [inhibitor, partial curve, poor fit]",
O=c1[nH]c(CSc2ccccc2)nc2c1oc1ccccc12,active: 10.4 µM,
COc1cccc(-n2ccnc2SCC(=O)Nc2ccccc2F)c1,"inconclusive [inhibitor, single point]",
C/C(=N/NS(=O)(=O)c1ccc(C)c(C)c1)c1c[nH]c2ccccc12,"inconclusive [inhibitor, partial curve, poor fit]",
O=C(N/N=C/c1ccc[nH]1)c1cccc([N+](=O)[O-])c1,,inactive: 36.7%
